No constants are given. Whether binding was seen depends on the method and setting. For some assays here: Binding seen in cells or lysates may run through a third protein. Some binding calls cover weakened binding; strength is not graded here.
Columns and labels:
[1] = molecular target: T1, CK2α, endogenous in mouse tissues (mouse (endogenous in C57BL/6J gastrocnemius muscle, epididymal fat, liver)) (UniProt Q60737); assay: co-IP; as a4, but lysate of liver of mice 30 min after MOTS-c (7.5 mg/kg) or none
T1 sequence: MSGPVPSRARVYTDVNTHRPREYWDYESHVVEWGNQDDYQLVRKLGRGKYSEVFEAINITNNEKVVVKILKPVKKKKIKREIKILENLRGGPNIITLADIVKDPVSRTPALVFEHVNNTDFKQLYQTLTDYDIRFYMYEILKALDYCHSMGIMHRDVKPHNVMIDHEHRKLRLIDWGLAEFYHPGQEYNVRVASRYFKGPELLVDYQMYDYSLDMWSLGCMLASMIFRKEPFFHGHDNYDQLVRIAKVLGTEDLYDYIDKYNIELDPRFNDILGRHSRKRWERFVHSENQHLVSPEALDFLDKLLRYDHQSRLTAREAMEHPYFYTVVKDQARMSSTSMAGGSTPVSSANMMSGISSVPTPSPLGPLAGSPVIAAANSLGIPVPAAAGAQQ

By UniProt entry, the sequences of proteins in these tests, tags left out.
UniProt P67870: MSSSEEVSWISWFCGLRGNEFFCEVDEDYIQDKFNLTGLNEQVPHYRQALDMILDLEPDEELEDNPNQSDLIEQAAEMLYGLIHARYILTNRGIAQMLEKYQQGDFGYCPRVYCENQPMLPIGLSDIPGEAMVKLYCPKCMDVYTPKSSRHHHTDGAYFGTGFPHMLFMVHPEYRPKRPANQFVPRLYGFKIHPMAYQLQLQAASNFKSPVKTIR

[2] = molecular target: T1, CK2α, endogenous in mouse tissues (mouse (endogenous in C57BL/6J gastrocnemius muscle, epididymal fat, liver)); assay: co-IP; CK2α antibody on Dynabeads Protein G; RIPA lysate (2 mg protein) of gastrocnemius muscle and epididymal fat of mice 30 min after MOTS-c (7.5 mg/kg) or none; blot with MOTS-c antibody
[3] = molecular target: CK2 complex (Casein Kinase II; contains both CK2α and CK2β subunits) (UniProt P68400); assay: far-Western, overlay or dot blot; CK2 complex (0-1000 units), CK2α or CK2β (0-210 ng) dotted on nitrocellulose; MOTS-c 5 μg/mL in SuperBlock (PBS) flowed over, 30 min, room temperature; detected by MOTS-c antibody; both purified
[4] = molecular target: CK2α (recombinant, GenScript) (UniProt P68400); assay: as above
CK2β (recombinant, IBL) = CK2β (recombinant, IBL) (UniProt P67870); assay: as above

binding [1]: no binding (condition: in liver) | binding [2]: binds | binding [3]: binds | binding [4]: binds | binding (CK2β (recombinant, IBL)): no binding (tested: 5 μg/mL)
Binder: MRWQEMGYIFYPRKLR [MOTS-c (mitochondrial open reading frame of the 12S ribosomal RNA type-c), wild type]
